Reference: a collection of fitness landscapes (doi:10.1038/s41467-024-54723-y)
Whole data set: some 18,000 sequences, median “TetR repression strength (sort-seq, GFP reporter)” near 0.23, cut for the highest 2% near 0.68. This is one part of the list.

target: TetR (class B, Tn10) (UniProt P04483); assay: TetR repression strength (sort-seq, GFP reporter) (relative to tetO2 = 1); higher = stronger repression; conditions: E. coli
Outline: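 Repression strength was calculated by subtracting the read-weighted mean bin from the top bin index plus one and dividing by the unaltered operator's value. The plasmid library was low-copy in E. coli SIG10-MAX, with eight randomized operator positions between a constitutive promoter and sfGFP and constitutive TetR. Cultures grew 5 h at 37 °C in LB containing 50 µg/mL chloramphenicol before 10^6 cells were sorted by FACS into 13 fluorescence bins, each sequenced on Illumina. Three independent transformations were averaged for members having ≥30 reads in all replicates and a CV ≤0.5.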

UniProt P04483, sequence (P04483 whole entry): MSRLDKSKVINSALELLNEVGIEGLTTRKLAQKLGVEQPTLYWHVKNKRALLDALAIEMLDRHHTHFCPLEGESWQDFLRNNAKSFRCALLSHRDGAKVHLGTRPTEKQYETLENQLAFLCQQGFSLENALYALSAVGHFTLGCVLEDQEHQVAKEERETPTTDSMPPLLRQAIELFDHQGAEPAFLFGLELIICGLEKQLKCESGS

Sequence | TetR repression strength
TCCCTGGCAGTGCTGGAGA | 0.197
TCCCGTCGAGTCGCGGAGA | 0.24
TCCCAGCCAGTACGCGAGA | 0.0225
TCCCACGGAGTGTATGAGA | 0.116
TCCCTCGAAGTTGGTGAGA | 0.421
TCCCAGTTAGTGACAGAGA | 0.33
TCCCCAAGAGTACGAGAGA | 0.17
TCCCCTATAGTCGCTGAGA | 0.322
TCCCCGTGAGTGAGGGAGA | 0.112
TCCCAGGGAGTGCGTGAGA | 0.123
TCCCTATCAGTGACCGAGA | 0.944
TCCCCAGTAGTGCGGGAGA | 0.478
TCCCAGGCAGTTGTGGAGA | 0.178
TCCCGGTAAGTGTAGGAGA | 0.152
TCCCTTTTAGTGTCGGAGA | 0.233
TCCCTGGTAGTGCGAGAGA | 0.186
TCCCGTGCAGTGATTGAGA | 0.165
TCCCGCGAAGTTACTGAGA | 0.4
TCCCTTATAGTCCTCGAGA | 0.411
TCCCTGAGAGTTTCCGAGA | 0.173
TCCCGCGCAGTAAGAGAGA | 0.255
TCCCCTAGAGTATAGGAGA | 0.231
TCCCCGGCAGTGGTTGAGA | 0.18
TCCCCACAAGTTCTCGAGA | 0.306
TCCCTGGAAGTAGGTGAGA | 0.313
TCCCCGGAAGTAGAGGAGA | 0.157

Sequence | TetR repression strength
TCCCGAGCAGTTCGTGAGA | 0.378
TCCCCTTCAGTTCAGGAGA | 0.182
TCCCGGTGAGTATCCGAGA | 0.198
TCCCCGACAGTGAGTGAGA | 0.104
TCCCGTTAAGTACGCGAGA | 0.128
TCCCATATAGTTGGTGAGA | 0.292
TCCCTATCAGTTTGTGAGA | 0.584
TCCCGGTCAGTGTAAGAGA | 0.436
TCCCGGACAGTTTTAGAGA | 0.0972
TCCCCTGAAGTTGGCGAGA | 0.226
TCCCAATCAGTGGGAGAGA | 0.389
TCCCTCGTAGTGCGCGAGA | 0.366
TCCCAGTGAGTCTGCGAGA | 0.0614
TCCCATAGAGTAGTGGAGA | 0.407
TCCCACCCAGTTCGCGAGA | 0.0727
TCCCTCCGAGTTGCAGAGA | 0.553
TCCCCGAAAGTGTAAGAGA | 0.482
TCCCATACAGTTGTTGAGA | 0.0901
TCCCCTACAGTGTGTGAGA | 0.118
TCCCATGGAGTTTTGGAGA | 0.377
TCCCTCCCAGTGGGAGAGA | 0.334
TCCCTAAGAGTCGAGGAGA | 0.181
TCCCTCCCAGTCTAGGAGA | 0.263
TCCCGATGAGTGTCGGAGA | 0.196
TCCCTAACAGTGAAAGAGA | 0.575
TCCCTCGAAGTAGGGGAGA | 0.154

Sequence | TetR repression strength
TCCCTGGAAGTGCGGGAGA | 0.16
TCCCCATCAGTGGAAGAGA | 0.202
TCCCCTCAAGTTGAGGAGA | 0.293
TCCCTTAAAGTATGGGAGA | 0.267
TCCCCAGGAGTTGATGAGA | 0.166
TCCCAGCGAGTGCGCGAGA | 0.0707
TCCCCGTTAGTTCTGGAGA | 0.153
TCCCTTCGAGTGCGAGAGA | 0.211
TCCCTGCGAGTTCAAGAGA | 0.418
TCCCAGTCAGTTTGCGAGA | 0.167
TCCCGAACAGTTGAAGAGA | 0.322
TCCCGTTTAGTCCTGGAGA | 0.207
TCCCGGTCAGTGGATGAGA | 0.353
TCCCCTCGAGTGAACGAGA | 0.0653
TCCCGGCGAGTGCGGGAGA | 0.254
TCCCGAGGAGTGAACGAGA | 0.208
TCCCGCTCAGTCAGAGAGA | 0.295
TCCCCGGGAGTAGCCGAGA | 0.207
TCCCAAACAGTGGTAGAGA | 0.443
TCCCAGTCAGTGGGGGAGA | 0.19
TCCCACGTAGTGTGCGAGA | 0.301
TCCCAAAGAGTATTCGAGA | 0.0485
TCCCTATCAGTACTCGAGA | 0.577
TCCCGTTCAGTGGATGAGA | 0.599
TCCCAACAAGTCATCGAGA | 0.337
TCCCGGCTAGTTGTGGAGA | 0.234

Sequence | TetR repression strength
TCCCGGCAAGTTATTGAGA | 0.46
TCCCGCACAGTCCTAGAGA | 0.351
TCCCTGTGAGTAATGGAGA | 0.0647
TCCCTTATAGTTGTGGAGA | 0.148
TCCCGTCGAGTTGGTGAGA | 0.177
TCCCTCTTAGTTCAGGAGA | 0.158
TCCCTTAAAGTGTATGAGA | 0.211
TCCCTTGTAGTCGACGAGA | 0.275
TCCCCGTAAGTCTCCGAGA | 0.229
TCCCTTTAAGTATTCGAGA | 0.122
TCCCATTGAGTCAGGGAGA | 0.0363
TCCCGCAGAGTGGAGGAGA | 0.186
TCCCGATTAGTAAGGGAGA | 0.207
TCCCATTAAGTGAATGAGA | 0.247
TCCCTCTAAGTGGACGAGA | 0.438
TCCCTGCAAGTTTTGGAGA | 0.155
TCCCCGTAAGTGGGAGAGA | 0.326
TCCCAAAGAGTCGCTGAGA | 0.222
TCCCAGTAAGTGTGGGAGA | 0.231
TCCCTGTAAGTGCCAGAGA | 0.259
TCCCGTGCAGTTGTCGAGA | 0.193
TCCCTGTGAGTCTAGGAGA | 0.116
TCCCGCGTAGTTAGCGAGA | 0.304
TCCCAATCAGTGGCAGAGA | 0.433
